The campaign covered roughly 110,000 compounds. About 230 (0.21%) showed an effect of 50% or more. The list shows a part of the results.
Each molecule was assayed against DPAP1 (Plasmodium falciparum, UniProt Q8IIJ9) (assay: primary screen, percent inhibition; read by cleavage of a fluorogenic dipeptide substrate; higher = more effect of the substance).
Set-up: species or system P. falciparum D10 trophozoite lysates; single well
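Also: 30 min substrate incubation versus DMSO and 10 µM JCP410 controls.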

Chain of DPAP1 (Q8IIJ9 whole entry, looked up): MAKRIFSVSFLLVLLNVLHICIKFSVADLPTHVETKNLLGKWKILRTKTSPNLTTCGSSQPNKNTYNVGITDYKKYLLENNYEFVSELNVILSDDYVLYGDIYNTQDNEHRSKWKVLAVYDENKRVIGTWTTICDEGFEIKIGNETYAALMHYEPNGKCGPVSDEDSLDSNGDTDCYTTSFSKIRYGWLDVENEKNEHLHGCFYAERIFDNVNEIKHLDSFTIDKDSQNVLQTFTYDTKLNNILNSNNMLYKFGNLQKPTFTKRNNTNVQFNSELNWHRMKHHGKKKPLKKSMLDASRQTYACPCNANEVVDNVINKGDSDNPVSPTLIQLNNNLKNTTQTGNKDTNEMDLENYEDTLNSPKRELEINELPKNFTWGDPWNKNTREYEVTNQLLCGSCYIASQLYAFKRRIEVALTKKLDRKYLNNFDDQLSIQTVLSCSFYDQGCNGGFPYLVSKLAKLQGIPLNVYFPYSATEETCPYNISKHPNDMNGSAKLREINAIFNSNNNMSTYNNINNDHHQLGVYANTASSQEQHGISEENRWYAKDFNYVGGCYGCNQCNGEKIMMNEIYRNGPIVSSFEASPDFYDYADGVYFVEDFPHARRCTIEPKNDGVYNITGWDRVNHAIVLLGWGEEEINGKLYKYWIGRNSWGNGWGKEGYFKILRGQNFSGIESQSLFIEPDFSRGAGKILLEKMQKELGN

| Compound | % Inhibition @ 10 uM [%] |
| --- | --- |
| O=c1c2ccccc2nc2cccc(-c3nc(O)c4ccccc4n3)n12 | 5.31 |
| Nc1sc2c(c1C(=O)O)CCCC2 | 5.39 |
| CC(C)(C)C1CCC(OC(=O)CCC(=O)NCc2ccccc2)CC1 (centres unmarked) | -7.42 |
| CC(C)C(C)(O)C#CCN1CCCCC1 (centres unmarked) | 0.247 |
| Cc1ccc(S(=O)(=O)c2nnn3c2nc(N2CCN(C)CC2)c2sccc23)cc1 | -5.57 |
| c1ccc(-n2nnnc2SCCN2CCCCC2)cc1 | -8.11 |
| Cc1ncn(C23CC4CC(CC(C4)C2)C3)n1 | -0.13 |
| CC1CCc2nc(NC(=O)CN3CCN(c4ccc(F)cc4)CC3)sc2C1 (centres unmarked) | -3.43 |
| Cc1cc(-c2ccc(C)c(S(=O)(=O)NCC(C)c3ccccc3)c2)on1 (centres unmarked) | 1.32 |
| Cn1cccc1Cc1nnc(SCC(=O)NC2CCCC2)n1-c1ccc(Cl)cc1 | 0.44 |
| CCn1c2ccccc2c2cc(CN(C)Cc3ccccc3)ccc21 | -2.34 |
| Cn1c(=O)c2ncn(CC(=O)Nc3ccc(Br)cc3)c2n(C)c1=O | 15.8 |
| COC(=O)c1c(NC(=O)C2CC2)sc(C(=O)Nc2ccccc2OC)c1C | -1.82 |
| Clc1ccccc1-c1nnc2c3cnn(-c4ccccc4)c3ncn12 | -3.96 |
| CCOc1ccc(CCNc2nc3ccc(Cl)cc3n3cnnc23)cc1OCC | 2.76 |
| Cc1ccc([N+](=O)[O-])cc1NC1OC(C)C(O)C(O)C1O (centres unmarked) | -1.96 |
| CCNC(=O)/C(C#N)=C/c1c(Oc2ccccc2C)nc2c(C)cccn2c1=O | 3.63 |
| CC(=O)N(C)c1ccc(NC(=O)CCc2ccccc2)cc1 | 2.44 |
| Cc1cc(/C=C2/NC(=O)N(Cc3ccccc3F)C2=O)c(C)n1Cc1ccccc1 | -5.44 |
| Cc1ccc(OCCCCN2CCCCC2)cc1 | -4.08 |
| COc1cc(C2C3=C(CCCC3=O)OC3=C2C(=O)CCC3)cc(Br)c1O | 0.605 |
| COC(=O)Nc1nc2cc(-c3nnc(O)c4ccccc34)ccc2[nH]1 | 1.9 |

| Compound | % Inhibition @ 10 uM [%] |
| --- | --- |
| CCN(CC)C(=O)CSc1nnc2c(n1)[nH]c1ccccc12 | 0.878 |
| COc1cc2c(cc1OC)C(c1ccc(Cl)c(Cl)c1)N(C)CC2 (centres unmarked) | -6.12 |
| CCOC(=O)c1c(C)[nH]c(C)c1S(=O)(=O)N1CCC(C)CC1 | -1.61 |
| CCc1ccc(C2C3=C(O)CCCC3=NC(C)=C2C(=O)OC)cc1 (centres unmarked) | -4.41 |
| Clc1cccc(CN2CCc3c([nH]c4ccccc34)C2)c1 | -1.38 |
| CCC(C(=O)NCCc1ccco1)n1nc(C)c2c(C)n(-c3ccccc3)nc2c1=O (centres unmarked) | -8.97 |
| Cc1ccc(NC(=O)CN(c2ccc(F)cc2)S(=O)(=O)c2ccccc2)cc1C | 1.65 |
| CCc1c(C)sc(NC(=O)C2CCCCC2C(=O)O)c1C(N)=O (centres unmarked) | 3.27 |
| COc1ccc(CCNC(=O)C2CC(c3ccc(F)cc3)=NO2)cc1OC (centres unmarked) | -2.16 |
| COc1cc(C(=O)Nc2ccc(C)c(C)c2)ccc1OC(F)F | -3.24 |
| CC(O)CNC(=O)c1ccc(-c2nn(C)c(=O)c3ccccc23)cc1 (centres unmarked) | -3.23 |
| COc1ccc(C(=O)Nc2cc(C(N)=O)cc(C(N)=O)c2)cc1 | -4.72 |
| Cc1c(CCNC(=O)c2cc(S(=O)(=O)N(C)C)c(Cl)cc2Cl)c2ccccc2n1C | 1.03 |
| CCOC(=O)C1CCCN(Cc2c(F)cccc2Cl)C1 (centres unmarked) | 6.32 |
| CC(=O)Nc1cccc(/N=C/c2c(C)nn(-c3c(Cl)cc(Cl)cc3Cl)c2O)c1 | 7.1 |
| Cc1ccc(Cn2c(=O)c3c(nc4n3CCN4Cc3ccccc3)n(C)c2=O)cc1 | 0.274 |
| Cc1cc(NC(=O)CSc2nc3ccc(Br)cc3c3nc4ccccc4n23)no1 | -1.68 |
| O=C(Nc1ccc(NC(=O)c2ccc(Cl)cc2Cl)cc1)c1ccccc1O | 1.59 |
| CCOC(=O)N1CCc2c(sc3nc(SC)nc(SC)c23)C1 | 4.39 |
| COCCNC(=O)CSc1[nH]c(-c2ccc(F)cc2)nc1-c1ccc(C)cc1 | 3.48 |
| COc1ccc(CCNCc2c(C(=O)O)c(C)n(Cc3ccccc3)c2C)c(OC)c1OC | -1.92 |
| COc1ccc(CN2CCN(Cc3ccco3)CC2)c(OC)c1 | -9.65 |

| Compound | % Inhibition @ 10 uM [%] |
| --- | --- |
| Cc1ccccc1CSCC(=O)NCc1ccc(Cl)c(Cl)c1 | 5.99 |
| Clc1ncnc2c1oc1ccc(Br)cc12 | -6.86 |
| CCOC(=O)c1cc(-c2ccccc2)sc1N | -2.48 |
| O=C(CSc1nnc(-c2ccccc2)o1)c1cc2ccccc2o1 | 2.72 |
| COc1cc(Br)cc(/C=C2/NC(=O)NC2=O)c1O | -4.93 |
| OCCc1c[nH]c2ccc(OCc3ccccc3)cc12 | -6.52 |
| NC(=O)NC(c1ccccc1)c1cccnc1 (centres unmarked) | 3.82 |
| Cc1ccc2c(CNCc3ccccc3Cl)c(C(=O)O)n(Cc3ccc(F)cc3Cl)c2c1 | 3.64 |
| COc1ccc(N(CC(=O)N2CCN(c3cccc(Cl)c3)CC2)S(C)(=O)=O)cc1Cl | 4.31 |
| COCCCNC(=O)c1nnc(Cc2c(F)cccc2Cl)o1 | 4.41 |
| Cc1ccc(C)c(C(=O)CSc2nc(C)cc(C)n2)c1 | -2.17 |
| CCOc1ccc(C(=O)C2=C(O)C(=O)N(Cc3cccnc3)C2c2ccccc2F)cc1 (centres unmarked) | -4.93 |
| CCN(C(=O)c1ccco1)c1nc(-c2ccccc2)cs1 | 72.9 |
| CN1CCN(C(=O)c2ccc(N(Cc3ccccc3Cl)S(C)(=O)=O)cc2)CC1 | 6.7 |
| O=C(NCc1ccco1)c1ccc(C(=O)NCc2ccco2)nc1 | 3.48 |
| O=C(CSc1nc2cccnc2[nH]1)NC1CCCCCC1 | 0.895 |
| CCOc1cc(C2C3=C(CCCC3=O)OC3=C2C(=O)CCC3)c(Br)cc1O | -2.98 |
| CCOc1ccc(OCc2ccc(C(=O)NCC3CCCO3)o2)cc1 (centres unmarked) | 5.66 |
| CC1CCN(c2nc3ccc(C(=O)NC(C)c4ccc5c(c4)OCCO5)cc3s2)CC1 (centres unmarked) | 4.22 |
| O=C(C1=NOC2C1CC1C3C=CC(C3)C12)c1ccccc1 (centres unmarked) | 2.65 |
| COc1cccc(CN2CNc3c(c(=O)n(C)c(=O)n3C)C2)c1 | -2.88 |

Reference: article PMC6919601, “Identification of Plasmodium dipeptidyl aminopeptidase allosteric inhibitors by high throughput screening” (PLoS ONE, 2019)
